# Laboratory results reported in the supplement of paper PMC10037445.
# “And” between values parts separate entries of the source, which are not always exact repeats. Equal entries are not always repeated. The full ranking holds about 2,900 compounds; the median of “NF-kB SEAP reporter activity, fold change vs agonist alone” is about 0.99, and the highest 2% start at about 2.6. The list shows a part of the results.
# What was measured:
# RAW-Dual [1] = test: NF-kB SEAP reporter activity, fold change vs agonist alone; higher = enhanced NF-kB activity; conditions: library stock concentration (final ~1000-fold dilution): 10 mM
# Outline: (§1)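 Reporter activity is given as fold change relative to agonist-alone wells. To measure it, 50 nL of library stock was pin-tooled onto RAW-Dual macrophages (50,000 cells/well, DMEM, 384-well plates), a PRR agonist followed 1 h later, and cells stayed at 37 °C, 5% CO2. Twenty hours on, supernatant was assayed for IRF (QuantiLuc luminescence) and NF-κB (QuantiBlue, 620 nm absorbance), and wells under 70% of agonist-control IncuCyte confluency in both mask sets were marked cytotoxic.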
# RAW-Dual [2] = test: NF-kB SEAP reporter activity, fold change vs agonist alone; cytotoxicity flag (confluency mask): not cytotoxic; higher = enhanced NF-kB activity
# Outline: as §1
# RAW-Dual [3] = test: NF-kB SEAP reporter activity, fold change vs agonist alone; cytotoxicity flag (confluency mask): cytotoxic (confluency <70% of control); higher = enhanced NF-kB activity
# Outline: as §1
# [4] = cytotoxicity flag (confluency mask): not cytotoxic, agonist: Imiquimod (TLR7) […]
# [5] = cytotoxicity flag (confluency mask): not cytotoxic, agonist: MPLA (TLR4) […]
# [6] = agonist: ODN 1826 (TLR9) 0.5 ug/mL
# [7] = agonist: Pam2CSK4 (TLR2/6) 0.1 ug/mL
# [8] = agonist: Pam3CSK4 (TLR2/1) 0.1 ug/mL
structure (smiles),measurement,setting,value
C=CCc1ccc(O)c(-c2ccc(O)c(CC=C)c2)c1,NF-kB SEAP reporter activity,RAW-Dual [1]; [4],0.854
same,NF-kB SEAP reporter activity,RAW-Dual [1]; [5],0.972
C=CCc1ccc(O)c(-c2ccc(O)c(CC=C)c2)c1 (library stock concentration (final ~1000-fold dilution): 10 mM),NF-kB SEAP reporter activity,RAW-Dual [2]; agonist: LPS (TLR4) 0.1 ug/mL,0.993
same,NF-kB SEAP reporter activity,RAW-Dual [2]; [6],0.982
same,NF-kB SEAP reporter activity,RAW-Dual [2]; [7],0.432
same,NF-kB SEAP reporter activity,RAW-Dual [2]; [8],0.921
N#CCC(C1CCCC1)n1cc(-c2ncnc3[nH]ccc23)cn1 (stereo unspecified) (library stock concentration (final ~1000-fold dilution): 10 mM),NF-kB SEAP reporter activity,RAW-Dual [2]; agonist: LPS (TLR4) 0.1 ug/mL,0.995 and 0.96 and 0.998
same,NF-kB SEAP reporter activity,RAW-Dual [2]; [6],2.7 and 1.88 and 2.86
same,NF-kB SEAP reporter activity,RAW-Dual [2]; [7],1.81 and 1.49 and 1.69
same,NF-kB SEAP reporter activity,RAW-Dual [2]; [8],2.14 and 2.16 and 2.67
CCOC(=O)/C=C/c1ccc(O)c(OC)c1 (library stock concentration (final ~1000-fold dilution): 10 mM),NF-kB SEAP reporter activity,RAW-Dual [2]; agonist: LPS (TLR4) 0.1 ug/mL,0.998
same,NF-kB SEAP reporter activity,RAW-Dual [2]; [6],1.03
same,NF-kB SEAP reporter activity,RAW-Dual [2]; [7],0.959
same,NF-kB SEAP reporter activity,RAW-Dual [2]; [8],1.07
CCOC(=O)/C=C/c1ccc(O)c(OC)c1,NF-kB SEAP reporter activity,RAW-Dual [1]; [4],1.08
same,NF-kB SEAP reporter activity,RAW-Dual [1]; [5],1.2
Cc1cc(-c2nc(-c3ccc(OC(F)(F)F)cc3)no2)nn1Cc1ccnc(N2CCN(C3CC3)CC2)c1,NF-kB SEAP reporter activity,RAW-Dual [1]; [4],0.931
same,NF-kB SEAP reporter activity,RAW-Dual [1]; [5],1.32
Cc1cc(-c2nc(-c3ccc(OC(F)(F)F)cc3)no2)nn1Cc1ccnc(N2CCN(C3CC3)CC2)c1 (library stock concentration (final ~1000-fold dilution): 10 mM),NF-kB SEAP reporter activity,RAW-Dual [2]; agonist: LPS (TLR4) 0.1 ug/mL,1.81
same,NF-kB SEAP reporter activity,RAW-Dual [2]; [6],0.926
same,NF-kB SEAP reporter activity,RAW-Dual [2]; [7],0.747
same,NF-kB SEAP reporter activity,RAW-Dual [2]; [8],0.842
CC(=O)C1CCC2C3CCC4=CC(=O)CCC4(C)C3CCC12C (stereo unspecified),NF-kB SEAP reporter activity,RAW-Dual [1]; [4],0.441
same,NF-kB SEAP reporter activity,RAW-Dual [1]; [5],1.06
CC(=O)C1CCC2C3CCC4=CC(=O)CCC4(C)C3CCC12C (stereo unspecified) (library stock concentration (final ~1000-fold dilution): 10 mM),NF-kB SEAP reporter activity,RAW-Dual [2]; agonist: LPS (TLR4) 0.1 ug/mL,0.981
same,NF-kB SEAP reporter activity,RAW-Dual [2]; [6],1.06
same,NF-kB SEAP reporter activity,RAW-Dual [2]; [7],1.38
same,NF-kB SEAP reporter activity,RAW-Dual [2]; [8],1.51
Cc1[nH]c(/C=C2\C(=O)Nc3ccc(S(=O)(=O)Cc4c(Cl)cccc4Cl)cc32)c(C)c1C(=O)N1CCCC1CN1CCCC1 (stereo unspecified),NF-kB SEAP reporter activity,"RAW-Dual [1]; cytotoxicity flag (confluency mask): cytotoxic (confluency <70% of control), agonist: Imiquimod (TLR7) […]",2.04
same,NF-kB SEAP reporter activity,"RAW-Dual [1]; cytotoxicity flag (confluency mask): cytotoxic (confluency <70% of control), agonist: MPLA (TLR4) […]",1.3
Cc1[nH]c(/C=C2\C(=O)Nc3ccc(S(=O)(=O)Cc4c(Cl)cccc4Cl)cc32)c(C)c1C(=O)N1CCCC1CN1CCCC1 (stereo unspecified) (library stock concentration (final ~1000-fold dilution): 10 mM),NF-kB SEAP reporter activity,RAW-Dual [3]; agonist: LPS (TLR4) 0.1 ug/mL,0.658
same,NF-kB SEAP reporter activity,RAW-Dual [3]; [6],1.39
same,NF-kB SEAP reporter activity,RAW-Dual [3]; [7],0.551
same,NF-kB SEAP reporter activity,RAW-Dual [3]; [8],0.886
COCC(NC(=O)c1cnc(C)s1)C(=O)NC(COC)C(=O)NC(Cc1ccccc1)C(=O)C1(C)CO1 (stereo unspecified) (library stock concentration (final ~1000-fold dilution): 10 mM),NF-kB SEAP reporter activity,RAW-Dual [2]; agonist: LPS (TLR4) 0.1 ug/mL,0.377
same,NF-kB SEAP reporter activity,RAW-Dual [2]; [6],1.25
same,NF-kB SEAP reporter activity,RAW-Dual [2]; [7],0.279
same,NF-kB SEAP reporter activity,RAW-Dual [2]; [8],0.692
COCC(NC(=O)c1cnc(C)s1)C(=O)NC(COC)C(=O)NC(Cc1ccccc1)C(=O)C1(C)CO1 (stereo unspecified),NF-kB SEAP reporter activity,RAW-Dual [1]; [4],2.34
same,NF-kB SEAP reporter activity,RAW-Dual [1]; [5],1.21
Cc1cn(C2CC(N=[N+]=[N-])C(CO)O2)c(=O)[nH]c1=O (stereo unspecified),NF-kB SEAP reporter activity,RAW-Dual [1]; [4],1.07
same,NF-kB SEAP reporter activity,RAW-Dual [1]; [5],1.1
Cc1cn(C2CC(N=[N+]=[N-])C(CO)O2)c(=O)[nH]c1=O (stereo unspecified) (library stock concentration (final ~1000-fold dilution): 10 mM),NF-kB SEAP reporter activity,RAW-Dual [2]; agonist: LPS (TLR4) 0.1 ug/mL,0.99
same,NF-kB SEAP reporter activity,RAW-Dual [2]; [6],1.04
same,NF-kB SEAP reporter activity,RAW-Dual [2]; [7],1.11
same,NF-kB SEAP reporter activity,RAW-Dual [2]; [8],1.15
OCc1ccc(-c2ccc(-c3ccc(CO)s3)o2)s1 (library stock concentration (final ~1000-fold dilution): 10 mM),NF-kB SEAP reporter activity,RAW-Dual [2]; agonist: LPS (TLR4) 0.1 ug/mL,1.13
same,NF-kB SEAP reporter activity,RAW-Dual [2]; [6],0.961
same,NF-kB SEAP reporter activity,RAW-Dual [2]; [7],0.904
same,NF-kB SEAP reporter activity,RAW-Dual [2]; [8],1
OCc1ccc(-c2ccc(-c3ccc(CO)s3)o2)s1,NF-kB SEAP reporter activity,RAW-Dual [1]; [4],1.33
same,NF-kB SEAP reporter activity,RAW-Dual [1]; [5],1.12
O=c1c(-c2ccc(O)cc2)coc2cc(O)cc(O)c12,NF-kB SEAP reporter activity,RAW-Dual [1]; [4],1.7
same,NF-kB SEAP reporter activity,RAW-Dual [1]; [5],1.64
O=c1c(-c2ccc(O)cc2)coc2cc(O)cc(O)c12 (library stock concentration (final ~1000-fold dilution): 10 mM),NF-kB SEAP reporter activity,RAW-Dual [2]; agonist: LPS (TLR4) 0.1 ug/mL,1.59
same,NF-kB SEAP reporter activity,RAW-Dual [2]; [6],1.6
same,NF-kB SEAP reporter activity,RAW-Dual [2]; [7],1.15
same,NF-kB SEAP reporter activity,RAW-Dual [2]; [8],1.26
Nc1cc(O)nc(N)n1,NF-kB SEAP reporter activity,RAW-Dual [1]; [4],1.09
same,NF-kB SEAP reporter activity,RAW-Dual [1]; [5],0.975
Nc1cc(O)nc(N)n1 (library stock concentration (final ~1000-fold dilution): 10 mM),NF-kB SEAP reporter activity,RAW-Dual [2]; agonist: LPS (TLR4) 0.1 ug/mL,0.917
same,NF-kB SEAP reporter activity,RAW-Dual [2]; [6],1.02
same,NF-kB SEAP reporter activity,RAW-Dual [2]; [7],0.869
same,NF-kB SEAP reporter activity,RAW-Dual [2]; [8],1.1
CCCCCCCCCCCCCC(=S)NCCCCC(NC(=O)OCc1ccccc1)C(=O)Nc1ccccc1 (stereo unspecified),NF-kB SEAP reporter activity,RAW-Dual [1]; [4],1.23
same,NF-kB SEAP reporter activity,RAW-Dual [1]; [5],0.867
CCCCCCCCCCCCCC(=S)NCCCCC(NC(=O)OCc1ccccc1)C(=O)Nc1ccccc1 (stereo unspecified) (library stock concentration (final ~1000-fold dilution): 10 mM),NF-kB SEAP reporter activity,RAW-Dual [2]; agonist: LPS (TLR4) 0.1 ug/mL,0.952
same,NF-kB SEAP reporter activity,RAW-Dual [2]; [6],0.68
same,NF-kB SEAP reporter activity,RAW-Dual [2]; [7],0.764
same,NF-kB SEAP reporter activity,RAW-Dual [2]; [8],0.752
Clc1cc2c(NC3CCCC3)nnc(-c3ccncc3)c2cc1Cl (library stock concentration (final ~1000-fold dilution): 10 mM),NF-kB SEAP reporter activity,RAW-Dual [2]; agonist: LPS (TLR4) 0.1 ug/mL,1.41
same,NF-kB SEAP reporter activity,RAW-Dual [2]; [6],0.913
same,NF-kB SEAP reporter activity,RAW-Dual [2]; [7],0.808
same,NF-kB SEAP reporter activity,RAW-Dual [2]; [8],0.717
Clc1cc2c(NC3CCCC3)nnc(-c3ccncc3)c2cc1Cl,NF-kB SEAP reporter activity,RAW-Dual [1]; [4],0.878
same,NF-kB SEAP reporter activity,RAW-Dual [1]; [5],1.02
